Measurements reported in article PMC3794860, “An RNA-Binding Complex Involved in Ribosome Biogenesis Contains a Protein with Homology to tRNA CCA-Adding Enzyme” (PLoS Biology, 2013).
Results are given in words; binding and its absence hold for the method and conditions named. Some results given as binding are weak or reduced against the parent protein; the word gives no strength. Tags and fused reporters may be left off the sequences shown.

B1: Rrp7 (natural protein, S. cerevisiae, UniProt P25368 1-297, looked up)
chain: MGIEDISAMKNGFIVVPFKLPDHKALPKSQEASLHFMFAKRHQSSNSNESDCLFLVNLPLLSNIEHMKKFVGQLCGKYDTVSHVEELLYNDEFGLHEVDLSALTSDLMSSTDVNEKRYTPRNTALLKFVDAASINNCWNALKKYSNLHAKHPNELFEWTYTTPSFTTFVNFYKPLDIDYLKEDIHTHMAIFEQREAQAQEDVQSSIVDEDGFTLVVGKNTKSLNSIRKKILNKNPLSKHENKAKPISNIDKKAKKDFYRFQVRERKKQEINQLLSKFKEDQERIKVMKAKRKFNPYT
notes: N-terminal His6-tag followed by a PreScission site, cleaved with PreScission protease; source: High Five insect cells, recombinant baculovirus, coexpressed with Utp22, copurified (HisTrap, heparin, Superdex 200); not shown: His6, N-terminal, cleaved
B2: Rrp7 F38D (protein, UniProt P25368 1-297)
chain: MGIEDISAMKNGFIVVPFKLPDHKALPKSQEASLHFMDAKRHQSSNSNESDCLFLVNLPLLSNIEHMKKFVGQLCGKYDTVSHVEELLYNDEFGLHEVDLSALTSDLMSSTDVNEKRYTPRNTALLKFVDAASINNCWNALKKYSNLHAKHPNELFEWTYTTPSFTTFVNFYKPLDIDYLKEDIHTHMAIFEQREAQAQEDVQSSIVDEDGFTLVVGKNTKSLNSIRKKILNKNPLSKHENKAKPISNIDKKAKKDFYRFQVRERKKQEINQLLSKFKEDQERIKVMKAKRKFNPYT
B3: Rrp7 Δ95–105 (removal of the β4–β5 loop) (protein, UniProt P25368)
chain: MGIEDISAMKNGFIVVPFKLPDHKALPKSQEASLHFMFAKRHQSSNSNESDCLFLVNLPLLSNIEHMKKFVGQLCGKYDTVSHVEELLYNDEFGDLMSSTDVNEKRYTPRNTALLKFVDAASINNCWNALKKYSNLHAKHPNELFEWTYTTPSFTTFVNFYKPLDIDYLKEDIHTHMAIFEQREAQAQEDVQSSIVDEDGFTLVVGKNTKSLNSIRKKILNKNPLSKHENKAKPISNIDKKAKKDFYRFQVRERKKQEINQLLSKFKEDQERIKVMKAKRKFNPYT
B4: Rrp7 CTD deletion mutant (Δ190–297) (domain or fragment, UniProt P25368 1-189)
chain: MGIEDISAMKNGFIVVPFKLPDHKALPKSQEASLHFMFAKRHQSSNSNESDCLFLVNLPLLSNIEHMKKFVGQLCGKYDTVSHVEELLYNDEFGLHEVDLSALTSDLMSSTDVNEKRYTPRNTALLKFVDAASINNCWNALKKYSNLHAKHPNELFEWTYTTPSFTTFVNFYKPLDIDYLKEDIHTHMA
B5: Rrp7 CTD alone (Δ1–190) (domain or fragment, UniProt P25368 191-297)
chain: FEQREAQAQEDVQSSIVDEDGFTLVVGKNTKSLNSIRKKILNKNPLSKHENKAKPISNIDKKAKKDFYRFQVRERKKQEINQLLSKFKEDQERIKVMKAKRKFNPYT
B6: Rrp7 Δ1–156 (domain or fragment, UniProt P25368 157-297)
chain: EWTYTTPSFTTFVNFYKPLDIDYLKEDIHTHMAIFEQREAQAQEDVQSSIVDEDGFTLVVGKNTKSLNSIRKKILNKNPLSKHENKAKPISNIDKKAKKDFYRFQVRERKKQEINQLLSKFKEDQERIKVMKAKRKFNPYT
B7: Rrp7 Δ1–89 (domain or fragment, UniProt P25368 90-297)
chain: NDEFGLHEVDLSALTSDLMSSTDVNEKRYTPRNTALLKFVDAASINNCWNALKKYSNLHAKHPNELFEWTYTTPSFTTFVNFYKPLDIDYLKEDIHTHMAIFEQREAQAQEDVQSSIVDEDGFTLVVGKNTKSLNSIRKKILNKNPLSKHENKAKPISNIDKKAKKDFYRFQVRERKKQEINQLLSKFKEDQERIKVMKAKRKFNPYT
B8: Rrp7 Δ163–188 (deletion of the linker region) (protein, UniProt P25368)
chain: MGIEDISAMKNGFIVVPFKLPDHKALPKSQEASLHFMFAKRHQSSNSNESDCLFLVNLPLLSNIEHMKKFVGQLCGKYDTVSHVEELLYNDEFGLHEVDLSALTSDLMSSTDVNEKRYTPRNTALLKFVDAASINNCWNALKKYSNLHAKHPNELFEWTYTTAIFEQREAQAQEDVQSSIVDEDGFTLVVGKNTKSLNSIRKKILNKNPLSKHENKAKPISNIDKKAKKDFYRFQVRERKKQEINQLLSKFKEDQERIKVMKAKRKFNPYT

The binders below were run against T1, Utp22 fused to GAL4 DNA-binding domain (S. cerevisiae) (UniProt P53254) (assay: two-hybrid; … GAL4 system, strain AH109; Utp22 on GAL4 BD as bait, Rrp7 and mutants on GAL4 AD as prey; growth on SC -Leu -Trp -His with 5 mM 3-AT (intermediate stringency) and SC -Leu -Trp -His -Ade (high stringency), 3 d at 30°C).
T1 sequence: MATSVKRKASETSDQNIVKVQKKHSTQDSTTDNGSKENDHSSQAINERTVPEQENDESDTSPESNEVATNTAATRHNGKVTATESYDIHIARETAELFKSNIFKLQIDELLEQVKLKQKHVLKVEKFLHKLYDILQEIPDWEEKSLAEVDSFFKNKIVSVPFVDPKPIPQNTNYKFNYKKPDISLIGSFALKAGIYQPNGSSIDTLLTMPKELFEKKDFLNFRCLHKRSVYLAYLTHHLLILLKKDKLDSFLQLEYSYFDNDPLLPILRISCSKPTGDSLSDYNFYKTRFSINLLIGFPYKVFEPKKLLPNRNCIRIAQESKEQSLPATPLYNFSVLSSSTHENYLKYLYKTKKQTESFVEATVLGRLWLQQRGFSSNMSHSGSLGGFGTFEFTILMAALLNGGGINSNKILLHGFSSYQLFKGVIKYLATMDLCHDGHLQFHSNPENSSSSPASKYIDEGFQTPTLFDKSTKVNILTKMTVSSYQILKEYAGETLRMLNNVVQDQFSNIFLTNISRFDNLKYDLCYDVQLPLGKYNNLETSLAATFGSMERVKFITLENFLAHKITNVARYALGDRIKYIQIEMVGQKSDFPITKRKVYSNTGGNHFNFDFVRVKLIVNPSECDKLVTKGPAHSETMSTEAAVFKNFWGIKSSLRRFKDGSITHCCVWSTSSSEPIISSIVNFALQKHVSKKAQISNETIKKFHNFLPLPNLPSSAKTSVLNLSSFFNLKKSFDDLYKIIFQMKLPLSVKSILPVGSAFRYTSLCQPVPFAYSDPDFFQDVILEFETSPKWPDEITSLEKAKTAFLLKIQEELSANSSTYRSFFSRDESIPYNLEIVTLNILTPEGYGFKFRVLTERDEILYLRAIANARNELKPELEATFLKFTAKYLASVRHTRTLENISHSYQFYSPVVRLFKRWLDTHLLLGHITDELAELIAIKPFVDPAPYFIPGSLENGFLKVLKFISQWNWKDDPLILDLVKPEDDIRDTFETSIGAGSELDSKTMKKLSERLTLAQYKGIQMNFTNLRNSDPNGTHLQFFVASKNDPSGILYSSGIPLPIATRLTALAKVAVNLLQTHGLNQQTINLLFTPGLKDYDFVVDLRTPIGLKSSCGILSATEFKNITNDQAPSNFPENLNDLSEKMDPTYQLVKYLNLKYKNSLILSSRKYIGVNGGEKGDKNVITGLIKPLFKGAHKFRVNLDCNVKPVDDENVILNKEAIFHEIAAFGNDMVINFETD

Binder | binding
B1 | binds
B2 | binds
B3 | binds
B4 | binds
B5 | no binding
B6 | binds
B7 | binds
B8 | binds
